The whole screen tested about 220,000 compounds, of which about 16,000 (7.3%) were called active. The inconclusive results got no clear call from the source; some entries with a clear call stand among them for comparison. Calls follow the shape of the dose curve; as a rule, active = well fitted inhibition curve with a large enough effect (not every such curve was filed as active); inconclusive = small, poorly fitted or top-dose-only effect, or another doubt; inactive = no such curve, though single readings can be large or run the other way. Potencies of inconclusive entries are left out as doubtful fits.
Biological target: Aldehyde dehydrogenase 1A1 (Homo sapiens) (UniProt P00352)
Assay: qHTS Assay for Inhibitors of Aldehyde Dehydrogenase 1 (ALDH1A1);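 as to activity, negative = inhibition: plate controls were no enzyme wells and a reference inhibitor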
Conditions: Purified ALDH1A1, NADH fluorescence, propionaldehyde substrate; series mostly up to 75.3 µM
Potency is read from the fitted curve at half-maximal effect; tags tell the direction and shape of the fitted curve.

UniProt P00352, sequence (P00352 whole entry, looked up): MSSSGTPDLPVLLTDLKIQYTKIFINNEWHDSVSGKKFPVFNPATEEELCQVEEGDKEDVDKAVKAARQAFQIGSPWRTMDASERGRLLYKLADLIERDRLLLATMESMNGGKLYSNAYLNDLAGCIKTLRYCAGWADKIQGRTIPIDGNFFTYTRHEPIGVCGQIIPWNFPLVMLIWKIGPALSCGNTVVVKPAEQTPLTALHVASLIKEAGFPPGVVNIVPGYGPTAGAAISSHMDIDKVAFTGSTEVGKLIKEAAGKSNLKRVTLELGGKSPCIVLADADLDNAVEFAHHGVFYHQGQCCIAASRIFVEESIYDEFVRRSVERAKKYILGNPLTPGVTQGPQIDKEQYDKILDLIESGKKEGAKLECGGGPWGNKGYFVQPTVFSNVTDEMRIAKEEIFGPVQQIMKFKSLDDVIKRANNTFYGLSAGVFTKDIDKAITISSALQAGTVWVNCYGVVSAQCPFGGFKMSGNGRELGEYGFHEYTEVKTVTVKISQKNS

Row | Compound | Potency | activity, negative = inhibition
1 | CN(/N=C/c1cc(Cl)cc(Cl)c1O)C(=S)NC(C)(C)C | inconclusive [inhibitor, single point] | –
2 | Cc1cc(C)nc(SCC(=O)OCN2C(=O)c3ccccc3C2=O)n1 | active: 10 µM | –
3 | O=C(O)C1CC=CCC1C(=O)NCCc1cccc(Cl)c1 (configuration not stated) | inconclusive [inhibitor, partial curve] | –
4 | N=C1S/C(=C\c2ccc(-c3cccc(Cl)c3)o2)C(=O)N1c1nccs1 | inactive | –
5 | COc1cc(-c2nc3ccc(N4CCN(C)CC4)cc3[nH]2)cc(OC)c1OC | inconclusive [inhibitor, partial curve] | –
6 | COCc1cc([C@@H]2C[C@H]3CN(c4ccccc4)C(=O)[C@]34CCCN24)ccc1OC | inactive | –
7 | O=C(NC(=O)c1cnccc1C(F)(F)F)Nc1ccccc1 | inactive | –
8 | COc1ccc(O)c(/C=N/NC(=S)Nc2cccnc2)c1 | inconclusive [inhibitor, single point] | –
9 | CCCOc1ccc2oc(=O)c3c(c2c1)CCCN3C(=O)CN1CCc2ccccc2C1 | inconclusive [inhibitor, partial curve] | –
10 | CC[N+]1(CC)CC2=Cc3c(ccc4ccccc34)CC2C1 (configuration not stated) | inconclusive [inhibitor, partial curve] | –
11 | O=C(/C=C\NCC(=O)c1ccccc1)c1ccccc1 | active: 2.51 µM | –
12 | COc1ccc(CNC(=O)CSc2nnc3c(Cl)cc(C(F)(F)F)cn23)cc1OC | inactive | –
13 | Cc1ccc(C)c(OCC(=O)Nc2ccc3c(c2)OCO3)c1 | inconclusive [inhibitor, single point] | –
14 | COc1cc(C(=O)NC(=S)Nc2ccc(NC(=O)c3ccco3)cc2)cc(OC)c1OC | inconclusive [inhibitor, single point] | –
15 | COc1ccc(Cc2noc(CN3CCN(c4ccc(Cl)cn4)CC3)n2)cc1OC | inactive | –
16 | O=C1C2C3C=CC(CC3)C2C(=O)N1/N=C/c1ccc(O)c(O)c1 (configuration not stated) | inconclusive [inhibitor, single point] | –
17 | CCN(CC)c1ccc(/C=N/OCC(=O)Nc2cccc(C)c2)cc1 | inconclusive [inhibitor, partial curve] | –
18 | COc1ccc(N2C(=O)c3ccc(C(=O)OC(C)C)cc3C2=O)cc1 | inconclusive [inhibitor, single point] | –
19 | O=C(C1CCC(CNS(=O)(=O)c2cccc3cccnc23)CC1)N1CCc2ccccc21 (configuration not stated) | active: 1.26 µM | –
20 | O=S(=O)(c1ccc(NC(=S)N/N=C/c2ccc(Oc3ccccc3)cc2)cc1)N1CCOCC1 | inconclusive [inhibitor, single point] | –
21 | O=C1/C(=C/c2ccco2)Oc2c1ccc(O)c2CN1CCCCC1 | inconclusive [inhibitor, single point] | –
22 | CC(C)[C@@H](CC(=O)N[C@@H]1CCNC[C@H]1C(=O)N[C@H](CC(=O)N[C@@H](CCC(=O)O)CC(=O)O)Cc1ccccc1)NC(=O)C[C@H](Cc1c[nH]c2ccccc12)NC(=O)[C@@H]1CCCC[C@H]1N | inactive | –
23 | CC(=O)Nc1ccc(Nc2cc(C)nc3c(-c4ccccc4)c(C)nn23)cc1 | inconclusive [inhibitor, single point] | –
24 | COc1ccc(OC)c(C2CC(c3c(-c4ccccc4)c4cc(Cl)ccc4[nH]c3=O)=NN2S(C)(=O)=O)c1 (configuration not stated) | inconclusive [inhibitor, full curve] | –

Row | Compound | Potency | activity, negative = inhibition
25 | Cc1ccc(C(=O)c2cnc3cc4c(cc3c2S(=O)(=O)c2ccccc2)OCCO4)cc1 | inconclusive [inhibitor, partial curve] | –
26 | O=C1CC(c2ccccc2)CC(=NCCO)/C1=C(\O)CCCN1C(=O)c2ccccc2C1=O (configuration not stated) | inconclusive [inhibitor, partial curve] | –
27 | CCCN(CCC)c1ncnc2nc[nH]c12 | inactive | –
28 | CN1CCC(=NNC(=O)CSc2ccc(Cl)cc2)CC1 | inconclusive [inhibitor, partial curve] | –
29 | COc1cc2nc(C3CCC3)nc(N3CCN(c4ccccn4)CC3)c2cc1OC | active: 8.91 µM | –
30 | COc1ccccc1CN1CC[C@@]2(CCCN(S(C)(=O)=O)C2)C1 | inactive | –
31 | O=C(NCc1cccs1)c1nc2c(nnn2Cc2ccc(F)cc2)c(=O)[nH]1 | inactive | –
32 | Cc1ccc(S(=O)(=O)N(CC(=O)N2CCN(c3ccc(F)cc3)CC2)C2CCCCC2)cc1 | inconclusive [inhibitor, partial curve] | –
33 | O=C(Nc1ccc(S(=O)(=O)Nc2ncccn2)cc1)c1ccc2ncsc2c1 | active: 7.08 µM | –
34 | CC(C)N1C(=O)CC2(CC[N+](C)(CCOC(=O)C(c3ccccc3)c3ccccc3)CC2)C1=O (configuration not stated) | active: 25.1 µM | –
35 | Cc1ccn2c(C(=O)N/N=C\c3cccs3)c(C)nc2c1 | inconclusive [inhibitor, single point] | –
36 | Cc1cc(NC(=O)CSc2nnc(C3CC3)n2N)c([N+](=O)[O-])cc1C | inactive | –
37 | O=C(Nc1ccccc1)Nc1ccc(C(=O)N2CCCC2)cc1 | inactive | –
38 | Cn1c(=O)c2c(nc(SCCCC#N)n2Cc2ccccc2F)n(C)c1=O | active: 2.82 µM | –
39 | CCOCC(=O)Nc1cc(S(=O)(=O)N2CCOCC2)ccc1N1CCCCC1 | active: 2.82 µM | –
40 | O=C1CCCc2c1[nH]c1ccc(Cl)cc21 | inactive | –
41 | COc1ccccc1CN1CC[C@@]2(CCCN(C(=O)c3ccncc3)C2)C1 | inactive | –
42 | CC(=O)Nc1ccc(-c2cn3ccsc3n2)cc1 | inactive | –
43 | CSc1ccccc1NC(=O)C1CC(c2ccccc2O)=NO1 (configuration not stated) | inconclusive [inhibitor, partial curve, poor fit] | –
44 | COc1ccc(C2C(=O)N(CCc3ccccc3)CC(=O)N2C2CCCCC2)cc1 (configuration not stated) | inconclusive [inhibitor, single point] | –
45 | COc1ccc(C2C(C(=O)O)CC(=O)N2c2ccc(OC)cc2)cc1 (configuration not stated) | inactive | –
46 | CCOc1ccc2oc(C(=O)NC3CC(C)(C)NC(C)(C)C3)c(C)c2c1 | inconclusive [inhibitor, single point] | –
47 | CCN(C(=O)COC(=O)c1cc(-c2ccccc2)nc2c1c(C)nn2-c1ccc(C)cc1)C1CCS(=O)(=O)C1 (configuration not stated) | inactive | –
48 | NC(=O)NC(c1ccccc1)c1cccc2ccccc12 (configuration not stated) | inconclusive [inhibitor, single point] | –

Row | Compound | Potency | activity, negative = inhibition
49 | CC(C)CSc1ncnc2c1oc1nc3c(cc12)COC(C)(C)C3 | inconclusive [inhibitor, partial curve] | –
50 | Cc1cc(NC(=O)c2ccc(S(=O)(=O)N3CCCC3)cc2)nc2c1c(=O)oc1ccccc12 | inconclusive [inhibitor, partial curve] | –
51 | CC1(C)Cc2c(sc3c2c(=N)n(Cc2ccco2)c(=O)n3Cc2ccc(Cl)cc2)CO1 | inconclusive [inhibitor, single point] | –
52 | CCOC(=O)c1[nH]c(C(=O)O)c(CCN(CC)CC)c1C | inactive | –
53 | Cc1ccc(N=CC2=C(O)CC(c3ccco3)CC2=O)cc1 (configuration not stated) | inconclusive [inhibitor, single point] | –
54 | CC1CCN(C(=O)/C=C/c2ccc(C(C)(C)C)cc2)CC1 | inactive | –
55 | COc1ccc(C(=O)N/C(=C\c2ccccc2)C(=O)NC(CCSC)C(=O)O)cc1 (configuration not stated) | inconclusive [inhibitor, partial curve] | –
56 | Cc1ccc(S(=O)(=O)NC(=O)O[C@@H]2C(=O)c3cc(Br)ccc3O[C@H]2c2ccc3c(c2)OCO3)cc1 | inactive | –
57 | CCOC(=O)Cc1cc(=O)n2[nH]c(C)c(-c3ccccc3)c2n1 | inactive | –
58 | CC(C)Cn1c(=O)c(C(=O)NCc2ccccn2)c(O)c2ccccc21 | inconclusive [inhibitor, single point] | –
59 | COc1ccc(-c2c(C)nn(-c3ccccc3)c2N)cc1 | inactive | –
60 | CC(Oc1ccc2oc(-c3ccccc3)c(C(=O)O)c2c1)C(=O)O (configuration not stated) | inconclusive [inhibitor, partial curve] | –
61 | C[C@]12CC[C@H]3c4ccc(O)cc4CC[C@@H]3[C@H]1CC[C@@H]2OP(=O)(O)O | – | inactive: -3.32% [at 13.5 µM]
62 | CCCC1CCc2c(sc(N)c2C(N)=O)C1 (configuration not stated) | active: 10 µM | –
63 | Cc1ccc(CN(Cc2ccc(C)o2)C(=S)NCC(=O)O)cc1 | inconclusive [inhibitor, single point] | –
64 | CC1CCCC(NC(=O)c2n[nH]c(=O)c3ccccc23)C1C (configuration not stated) | inconclusive [inhibitor, partial curve] | –
65 | CCN(CC)C(=O)CSC(=Nc1ccccc1F)NC#N | inconclusive [inhibitor, single point] | –
66 | COC(=O)c1ccc(-c2ccc(/C=N/N3C(=O)C4C5C=CC(C6CC56)C4C3=O)o2)cc1 (configuration not stated) | inactive | –
67 | Cc1ccc(NC(=O)C(NC2CCCC2)c2ccccc2)cc1Cl (configuration not stated) | inconclusive [inhibitor, partial curve] | –
68 | COc1cccc(OCC(O)CN2CCC(CN3C(=O)c4cccc5cccc(c45)C3=O)CC2)c1 (configuration not stated) | inconclusive [inhibitor, single point] | –
69 | O=C(Nc1ccc(Cl)c(Cl)c1)OCc1cccnc1 | inconclusive [inhibitor, single point] | –
70 | C=CCNC(=S)NNC(=O)C(CCCC)CC(C)O (configuration not stated) | inactive | –
71 | N#CCOc1ccc2oc(-c3ccco3)cc(=O)c2c1 | inconclusive [inhibitor, partial curve] | –
72 | O=C(COC(=O)C1CC2C=CC1C2)Nc1ccc2c(c1)OC(F)(F)O2 (configuration not stated) | inconclusive [inhibitor, single point] | –
